Measurements as given in paper PMC4336329 (PLoS ONE, 2015).
In all, about 310,000 compounds went through this assay and about 14,000 (4.5%) showed an effect of 50% or more. Effects have a minus sign here. The list shows a part of the results.

biological target: human ether-à-go-go-related gene (hERG) potassium channel (human, UniProt Q12809); assay: primary screen, population patch clamp on CHO cells stably expressing hERG
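Note: peak tail current of the secondary pulse compared with the same well before compound.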

Chain of human ether-à-go-go-related gene (hERG) potassium channel (Q12809 whole entry, looked up): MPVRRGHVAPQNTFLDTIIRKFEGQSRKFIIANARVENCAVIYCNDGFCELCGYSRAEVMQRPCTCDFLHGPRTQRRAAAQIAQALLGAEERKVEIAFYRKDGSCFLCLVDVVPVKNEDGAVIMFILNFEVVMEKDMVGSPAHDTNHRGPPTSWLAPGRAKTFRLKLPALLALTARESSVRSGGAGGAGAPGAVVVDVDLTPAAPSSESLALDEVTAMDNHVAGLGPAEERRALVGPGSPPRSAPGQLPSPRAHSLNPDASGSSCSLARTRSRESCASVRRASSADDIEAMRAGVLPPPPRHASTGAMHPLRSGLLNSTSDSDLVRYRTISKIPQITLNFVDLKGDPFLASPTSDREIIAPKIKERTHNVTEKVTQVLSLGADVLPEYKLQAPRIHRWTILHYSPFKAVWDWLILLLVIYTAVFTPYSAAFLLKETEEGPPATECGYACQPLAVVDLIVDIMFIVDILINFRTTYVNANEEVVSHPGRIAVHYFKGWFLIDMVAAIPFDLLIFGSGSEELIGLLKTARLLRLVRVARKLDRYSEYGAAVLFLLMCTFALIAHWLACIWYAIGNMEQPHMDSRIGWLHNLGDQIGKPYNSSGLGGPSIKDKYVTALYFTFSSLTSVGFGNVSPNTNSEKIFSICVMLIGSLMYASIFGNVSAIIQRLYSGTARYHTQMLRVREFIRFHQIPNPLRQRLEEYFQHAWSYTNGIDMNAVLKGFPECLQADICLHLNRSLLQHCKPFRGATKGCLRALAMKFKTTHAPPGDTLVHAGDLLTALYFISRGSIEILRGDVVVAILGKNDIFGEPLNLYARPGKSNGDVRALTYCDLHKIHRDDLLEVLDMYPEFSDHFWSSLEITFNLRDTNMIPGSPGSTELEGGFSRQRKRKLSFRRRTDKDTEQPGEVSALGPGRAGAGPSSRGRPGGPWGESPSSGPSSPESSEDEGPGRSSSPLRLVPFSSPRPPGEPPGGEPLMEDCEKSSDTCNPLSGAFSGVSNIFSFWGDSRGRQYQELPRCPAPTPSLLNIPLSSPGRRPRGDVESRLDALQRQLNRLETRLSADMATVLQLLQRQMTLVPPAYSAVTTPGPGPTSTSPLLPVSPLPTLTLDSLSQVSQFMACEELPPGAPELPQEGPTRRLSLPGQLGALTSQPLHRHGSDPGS

Compared with `COc1ccccc1N1CCN(Cc2cc(Br)c(O)c3ncccc23)CC1`, `COc1ccc(-c2cc(C(=O)N3CCN(c4ccccc4)CC3)no2)cc1` is higher in “hERG current change (%, negative = inhibition) at 10uM” value: -8.81% for the first, 12.1% for the second.

Going from `COc1ccc(OCCOC(=O)c2cccs2)cc1` to `COc1ccc(C2=CC3=C(Br)C(=O)C(C)(OC(=O)c4cccs4)C(=O)C3=CO2)cc1` (stereo not drawn), the “hERG current change (%, negative = inhibition) at 10uM” value rises from -0.463% to 8.96%.

Going from `COC(=O)c1ccc(COc2ccccc2/C=N/O)o1` to `CCOc1ccc(OCc2ccc(C(=O)NC(C)C)o2)cc1`, the “hERG current change (%, negative = inhibition) at 10uM” value rises from 2.96% to 10.3%.

`CC(=O)CSc1nnc(CN2C(=O)CSc3ccc(C(F)(F)F)cc32)n1C` and `CN(C)C(=O)CCC(=O)N1CCCC(N2CCN(c3cccc(C(F)(F)F)c3)CC2)C1` (stereo not drawn) are the same in “hERG current change (%, negative = inhibition) at 10uM” value: -12.3% for the first, -12.3% for the second.

Compared with `Cc1ccc(NC(=O)c2ccoc2C)cc1C`, `Cc1ccc(NC(=O)CN2CCc3cc4c(cc3C2C)OCCCO4)cc1C` (stereo not drawn) is higher in “hERG current change (%, negative = inhibition) at 10uM” value: -12.8% for the first, -3.16% for the second.

First: CCOc1cc(S(=O)(=O)N(CC)CC)ccc1Br
Second: CCOc1ccc(CN(CCO)CCO)cc1C(=O)OC
The “hERG current change (%, negative = inhibition) at 10uM” value of the first is lower: -11.8% for the first, -7.24% for the second.

First: COc1ccc(C(=O)Nc2nc(C)cs2)cc1S(=O)(=O)N1CCCC1
Second: CC(CNC(=O)Cn1ccc2cc(S(=O)(=O)N3CCCC3)ccc21)c1ccccc1 (stereo not drawn)
The “hERG current change (%, negative = inhibition) at 10uM” value of the first is lower: -13.5% for the first, -9.17% for the second.

Compared with `CCOC(=O)c1c(N2CCCCC2)c2ccccc2[nH]c1=O`, `CCOc1ccc(C(=O)NCC(=O)OCC(=O)N2CCCCC2)cc1` is lower in “hERG current change (%, negative = inhibition) at 10uM” value: 11% for the first, 5.79% for the second.

First: CCOc1ccc(N(CC(=O)NC2CCCCC2)C(=O)CCC(=O)Nc2cc(C)ccn2)cc1
Second: O=C(N/N=C/c1cccc(O)c1)c1ccc(NC(=O)C2CCCCC2)cc1
The “hERG current change (%, negative = inhibition) at 10uM” value of the first is lower: 8.21% for the first, 33% for the second.

First: CCN1CCN(C(=O)c2ccc(Cl)c(S(=O)(=O)N(C)c3ccccc3)c2)CC1
Second: COc1cccc(C(=O)CN2CCN(S(=O)(=O)c3cccc([N+](=O)[O-])c3)CC2)c1
The “hERG current change (%, negative = inhibition) at 10uM” value of the first is lower: -20.6% for the first, -9.29% for the second.

Going from `CC(OC(=O)CCN=C1NS(=O)(=O)c2ccccc21)C(=O)Nc1ccc(F)cc1` (stereo not drawn) to `CCOc1ccc(NC(=O)[C@@H](NC(=O)c2ccccc2)[C@@H](C)CC)cc1`, the “hERG current change (%, negative = inhibition) at 10uM” value rises from -5.54% to 2.26%.

Going from `O=C(Nc1cccc(NC(=O)c2ccccc2[N+](=O)[O-])c1)c1ccccc1Cl` to `N#Cc1cccc(NC(=O)CSc2ccc3c4c(cccc24)C(=O)c2ccccc2-3)c1`, the “hERG current change (%, negative = inhibition) at 10uM” value rises from 7.19% to 23.4%.

First: O=c1[nH]n(-c2ccc(Cl)cc2)c2ncccc12
Second: CCOc1[nH]n(-c2ccc(Cl)cc2)c(=O)c1C=NCC(=O)OC
The “hERG current change (%, negative = inhibition) at 10uM” value of the first is higher: 6.15% for the first, -33.2% for the second.

First: CN(C)S(=O)(=O)c1ccc(NC(=O)CN2CCCC2c2ccc3c(c2)OCCCO3)cc1 (stereo not drawn)
Second: CC1CCN(S(=O)(=O)c2ccc(C(=O)N(C)C3CCS(=O)(=O)C3)cc2)CC1 (stereo not drawn)
The “hERG current change (%, negative = inhibition) at 10uM” value of the first is lower: -9.91% for the first, 4.83% for the second.

Compared with `CCS(=O)c1ccccc1C(=O)O` (stereo not drawn), `C=C(C)CSc1nnc(-c2ccccc2)n1N` is lower in “hERG current change (%, negative = inhibition) at 10uM” value: 7.31% for the first, -1.72% for the second.

First: Cc1ccc(C)c(-n2ccnc2SCC(=O)O)c1
Second: Cc1ccc2nc(SCC(=O)Nc3cccc(S(N)(=O)=O)c3)[nH]c2c1
The “hERG current change (%, negative = inhibition) at 10uM” value of the first is lower: 2.03% for the first, 13.5% for the second.

Going from `COc1ccc(-n2nc(C(=O)NCC(=O)O)c3ccccc3c2=O)cc1` to `COCCn1c(SCCOc2ccccc2)nc2ccccc2c1=O`, the “hERG current change (%, negative = inhibition) at 10uM” value falls from 17.7% to -6.1%.

Going from `COc1ccc(OC)c(NC(=O)CSc2sc3c(O)cc(=O)[nH]c3c2C#N)c1` to `COc1ccc2nc(NC(=O)CSC(C)C(=O)Nc3cc(C)on3)sc2c1` (stereo not drawn), the “hERG current change (%, negative = inhibition) at 10uM” value rises from -19.4% to -11.5%.

Going from `Cc1cccc(CN2CCN(CC(=O)N3CCCC3)C2=O)c1` to `CN(C)CCN(Cc1ccccc1)C(=O)C1CCN(c2ncnc3c2nc2n3CCCCC2)CC1`, the “hERG current change (%, negative = inhibition) at 10uM” value falls from -5.53% to -15.1%.

Going from `CN(C)c1nc(N)nc(-c2ccco2)n1` to `CC(=O)Nc1cc(NC(C)=O)c2nc(N)sc2c1.Cl`, the “hERG current change (%, negative = inhibition) at 10uM” value rises from 9.78% to 12.3%.

First: COCCN(Cc1cc2ccc(C)cc2[nH]c1=O)S(=O)(=O)c1ccccc1
Second: CCOc1cc2c(cc1OCC)-n1cccc1C(c1ccccc1F)NC2.Cl (stereo not drawn)
The “hERG current change (%, negative = inhibition) at 10uM” value of the first is lower: -16.3% for the first, -4.4% for the second.

Compared with `COc1cc(OC)c(-c2noc(C(=O)OC(C)(C)C)c2C(=O)OC(C)(C)C)c(OC)c1`, `COc1cccc(C(=O)n2c(SC)nc3cc4c(cc32)OCCO4)c1` is lower in “hERG current change (%, negative = inhibition) at 10uM” value: 0.93% for the first, -17.2% for the second.

First: CCc1cc2c(=O)c(-c3nc4ccccc4[nH]3)coc2cc1OC(=O)N1CCOCC1
Second: CC1Oc2ccccc2N(CC(=O)N2CCCc3ccccc32)C1=O (stereo not drawn)
The “hERG current change (%, negative = inhibition) at 10uM” value of the first is higher: -10.7% for the first, -16.3% for the second.

Going from `COc1cccc(C2=NOC(C(=O)NC3CCCCC3)C2)c1` (stereo not drawn) to `CCOc1ccc2nc(NC(=O)C34CC5CC(CC(NC(C)=O)(C5)C3)C4)sc2c1`, the “hERG current change (%, negative = inhibition) at 10uM” value falls from -11.6% to -13.5%.

First: O=C(NNC1=NS(=O)(=O)c2ccccc21)c1ccc([N+](=O)[O-])cc1
Second: O=C(CNS(=O)(=O)c1ccc([N+](=O)[O-])cc1)N/N=C/c1ccc(O)cc1O
The “hERG current change (%, negative = inhibition) at 10uM” value of the first is lower: 7.45% for the first, 23.2% for the second.

First: CCOC(=O)c1sc2cc([N+](=O)[O-])cc(SCCO)c2c1N
Second: COC(=O)c1oc2ccc(Br)cc2c1NC(=O)CN1CCN(C)CC1
The “hERG current change (%, negative = inhibition) at 10uM” value of the first is higher: 8.39% for the first, -62.3% for the second.

First: CCN(CC)c1nc(=S)nc(NC(C)(C)C)[nH]1
Second: O=C(NCc1ccc(F)cc1)C(c1ccc(Cl)cc1)N(C(=O)c1csnn1)C1CC1 (stereo not drawn)
The “hERG current change (%, negative = inhibition) at 10uM” value of the first is lower: -21.3% for the first, -0.0702% for the second.

Going from `O=C(NCc1cccnc1)c1cccn1-c1ncc(C(F)(F)F)cc1Cl` to `O=C(NCc1cccnc1)c1cccc2c1C(=O)N(Cc1cccnc1)C2`, the “hERG current change (%, negative = inhibition) at 10uM” value falls from 14.1% to -11%.

`Oc1cncc(-c2cccnc2)c1` was tested, and the “hERG current change (%, negative = inhibition) at 10uM” value was 6.63%.
